Test results as given in PubChem BioAssay AID2100 (National Center for Advancing Translational Sciences (NCATS), 2009).
Screen size: about 300,000 compounds; about 1,200 (0.4%) were called active. This list was built around the results that the source calls inconclusive (neither active nor inactive); the mix of calls is not that of the screen. Calls come from the whole dose curve; as a rule, active = well fitted inhibition curve with a large enough effect; inconclusive = small, poorly fitted or top-dose-only effect, or another doubt; inactive = no such curve, though single readings can be large or run the other way. A potency beside an inconclusive call is a rough fit, not a confirmed value.

These molecules were tested against Lysosomal alpha-glucosidase (Homo sapiens) (UniProt P10253) (assay: qHTS Assay for Inhibitors and Activators of Human alpha-Glucosidase Cleavage of Glycogen). Details: recombinant GAA, glycogen substrate, Amplex Red glucose oxidase fluorescence; series mostly up to 76.4 µM.
In short: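 qHTS, 1536-well; enzyme 4 nM final; cpd up to 77 uM; substrate bovine liver glycogen 30 ug; 50 mM citrate/phosphate pH 5.0, 0.01% Tween-20; 37 C, 40 min; Amplex Red detection 45 min RT; Hill fit → AC50.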
Potency is the fitted concentration of half-maximal effect.

Row | SMILES | Potency
1 | CC1CCN(S(=O)(=O)c2ccc3c(c2)CCN3C(=O)Nc2ccccc2Br)CC1 | inactive
2 | COc1cc(Sc2ccc(C)cc2)c(OC)cc1N | inconclusive: 44.7 µM [inhibitor, single point]
3 | Cc1ccc(NCc2n[nH]c(=S)n2-c2ccccc2)cc1 | inconclusive: 25.1 µM [inhibitor, single point]
4 | Cc1ccc(OCCn2c(C)c(/C=N/n3cnnc3)c3ccccc32)cc1 | inactive
5 | COc1ccc(OCC(=O)c2c(O)c3ccccc3oc2=O)cc1 | inconclusive: 39.8 µM [inhibitor, partial curve]
6 | COc1ccc2oc(=O)c(/C(C)=N/NC(=O)c3ccncc3)cc2c1 | inconclusive: 35.5 µM [inhibitor, single point]
7 | Cc1cccc(N2C(=O)CC(N(O)c3ccccc3)C2=O)c1 (centres undefined) | inconclusive: 8.84 µM [inhibitor, partial curve]
8 | COc1cc(CNc2ccc(N3CCOCC3)c(C(=O)O)c2)ccc1OCC(N)=O | inconclusive: 8.84 µM [inhibitor, partial curve]
9 | COc1ccc(/C=N/Nc2cc(N(C)C)nc(N(C)C)n2)cc1 | inactive
10 | COc1ccc(NC(=O)/C(C#N)=C\c2ccc(-c3cccc(C(=O)O)c3C)o2)cc1 | inconclusive: 2 µM [inhibitor, partial curve]
11 | CCCc1cc(=O)[nH]c(Nc2cc(C)ccc2OC)n1 | inactive
12 | CCOC(=O)c1cc(S(=O)(=O)N2CCN(c3ccccc3OC)CC2)cn1C | inconclusive: 50.1 µM [inhibitor, single point]
13 | COc1ccc(NC2CCCN(C(=O)c3cccc(N(C)C)c3)C2)cc1 (centres undefined) | inconclusive: 31.6 µM [inhibitor, single point]
14 | O=C(O)Cc1sc(Nc2ccccc2)nc1-c1ccc(Cl)cc1 | inconclusive: 12.5 µM [inhibitor, partial curve]
15 | COc1cccc(CNc2cnc3ccccc3c2)c1O | inconclusive: 14 µM [inhibitor, partial curve]
16 | CCOc1ccc2[nH]c(=O)c(CN(CCCN3CCOCC3)Cc3nnnn3Cc3ccc(OC)cc3)cc2c1 | inconclusive: 39.5 µM [activator, single point]
17 | Cc1cc(S(=O)(=O)Nc2cccc(C(=O)O)c2)c(C)c(S(=O)(=O)c2ccccc2)c1 | inactive
18 | COc1ccc(O)c(-c2[nH]ncc2C(=O)c2ccccc2)c1 | inconclusive: 14.1 µM [inhibitor, partial curve]
19 | Cc1ccccc1NC(=S)NCc1ccc2[nH]c3c(c2c1)CCCC3 | inconclusive: 6.31 µM [inhibitor, full curve, poor fit]
